In PubChem BioAssay AID652104 (National Center for Advancing Translational Sciences (NCATS), 2013):
Screen size: about 410,000 compounds; about 7,200 (1.8%) were called active. Inconclusive means that the source gave no clear call. Such entries were picked first, then a sample of the others. Calls come from the whole dose curve; as a rule, active = well fitted activation curve with a large enough effect; inconclusive = small, poorly fitted or top-dose-only effect, or another doubt; inactive = no such curve, though single readings can be large or run the other way. Potencies of inconclusive entries are left out as doubtful fits.

assay: qHTS of TDP-43 Inhibitors; settings: TDP-43 expressing yeast growth rescue, BacTiter-Glo, 24 h; series mostly up to 46.1 µM; note: nearly all actives have a fitted effect of over 50% in size
How it was run: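 In this qHTS, compounds that restore growth of yeast expressing TDP-43 appear as activators. Cells (OD600=0.02, galactose medium, raffinose-pregrown) are incubated with compound 24 hr at 30 deg C and growth is quantified by BacTiter-Glo.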
Potency is the fitted concentration of half-maximal effect; tags give direction and shape of the fitted curve.

SMILES | Potency
CC(C)(C)c1cc(C(=O)NCc2ccccc2)ccn1 | inconclusive [activator, full curve, poor fit]
CN(C(=O)CCn1c(=S)oc2ccccc21)c1ccc(F)cc1 | inconclusive [activator, partial curve]
Cc1cc(Cl)ccc1C(=O)C1CCCN(C(=O)c2ccoc2)C1 (centres undefined) | inconclusive [activator, single point]
CC(C)[C@H]1COCCS(=O)(=O)N1Cc1ccccc1-c1ccc(F)cc1 | inconclusive [activator, single point]
COCC(=O)c1[nH]c2ccccc2c1C | inconclusive [activator, partial curve]
CC(C)CNC(=S)NC(=O)c1ccc(Cl)cc1 | inconclusive [activator, single point]
O=C(COCc1cc(-c2cccs2)on1)Nc1cc(C(F)(F)F)ccc1Cl | inactive
CCOc1ccc(NC(=O)CSc2oc(-c3ccc(C)cc3)nc2S(=O)(=O)c2ccc(C)cc2)cc1 | inactive
c1ccc(-c2ccc(OCCCn3cncn3)cc2)cc1 | inconclusive [activator, partial curve]
COc1cc(C2C(S(=O)(=O)c3ccccc3)CON2C)ccc1OCc1ccc(F)cc1 (centres undefined) | inconclusive [activator, partial curve, poor fit]
COc1ccc(C(C)(C)C)cc1NC(=O)COC(=O)c1ccc([N+](=O)[O-])o1 | inactive
Cc1cncc(NCc2ccc3c(c2)OCO3)n1 | inconclusive [activator, partial curve, poor fit]
COC(=O)c1ccc2nc(-c3ccc(OC)c(OC)c3)c(Cc3ccccc3OC)n2c1 | inconclusive [activator, single point]
COc1cccc(CN(C)C(=O)c2cc(-c3ccc(OC)c(OC)c3)nc3ccccc23)c1 | inconclusive [activator, partial curve]
CC(=O)Nc1ccc(NS(=O)(=O)c2cccc3ccccc23)cc1 | inactive
CCOC(=O)N1CCN(C(=O)c2cc(COc3ccc(Cl)cc3OC)on2)CC1 | inconclusive [activator, single point]
CCOc1ccc(NS(=O)(=O)c2c(C)nc3sccn3c2=O)cc1 | inconclusive [activator, partial curve]
CCn1c2ccccc2c2cc(/C=N/NC(=O)c3cccc(C)c3)ccc21 | inconclusive [activator, partial curve]
COC(=O)c1scc(-c2ccc(C)cc2)c1S(=O)(=O)N1CCN(c2ccc(C(C)=O)cc2)CC1 | inconclusive [activator, single point]
O=C(O)c1ccc2c(c1)OCCO2 | inactive
COc1ccc(C2=CC(c3ccccc3Cl)n3nc(-c4ccc(Cl)cc4)nc3N2)cc1 (centres undefined) | inactive
Cc1ccc(Cl)cc1NC(=O)C(C)n1nc(-c2ccccc2)ccc1=O (centres undefined) | inconclusive [activator, partial curve]

SMILES | Potency
c1ccc(CCc2nn3c(Cc4ccccc4)nnc3s2)cc1 | inconclusive [activator, single point]
C[C@@H]1CN([C@H](C)CO)C(=O)CCCn2cc(nn2)CO[C@H]1CN(C)S(=O)(=O)c1ccc2ccccc2c1 | inactive
CCCCNC(=O)C(NC(=O)c1cccs1)C(=O)c1ccccc1 (centres undefined) | inactive
CCCOc1ccc(N2C(=O)CC(N(Cc3ccccc3)N=O)C2=O)cc1 (centres undefined) | active: 20 µM
CSc1nncc(-c2ccc(F)cc2)n1 | inconclusive [activator, partial curve]
COC(=O)c1sccc1NC(=O)Nc1cccc(C)c1C | inconclusive [activator, partial curve]
CCc1cc(=O)oc2cc(OC(=O)c3ccco3)ccc12 | inactive
Cc1ccc2c(CC(=O)Nc3ccc(S(=O)(=O)N4CCCCC4)cc3)coc2c1 | inconclusive [activator, partial curve]
Cc1ccc(Cl)cc1NC(=O)Cn1c(=O)oc2cc(S(=O)(=O)N3CCCC3)ccc21 | inactive
COc1ccc(C(=O)Nc2ccc(Nc3ccccc3)cc2)cc1[N+](=O)[O-] | inconclusive [activator, single point]
Cc1[nH][nH]c(=O)c1N=Nc1ccc(Cl)cc1 | inconclusive [activator, partial curve, poor fit]
CCCCCCCCCCCCN1[C@@H](CC(=O)O)c2cc(C(F)(F)F)ccc2S1(=O)=O | inconclusive [activator, partial curve]
CC(=O)Nc1ccc2nc(-c3cc(C)ccc3C)[nH]c2c1 | inactive
COC(=O)Cc1ccc(NC(=S)NCCSc2ccc(Cl)cc2)cc1 | inconclusive [activator, single point]
Cc1ccc(C)c(NC(=S)N2CCCCCC2)c1 | inconclusive [activator, partial curve]
c1ccc(C2Nc3ccccc3-c3nc4ccccc4n32)nc1 (centres undefined) | inconclusive [activator, partial curve]
Cc1cc(-c2ccco2)n(-c2ccccc2)n1 | inconclusive [activator, partial curve]
COc1cc(CCC(C)=O)ccc1OC(=O)c1c(F)cccc1Cl | inconclusive [activator, single point]
CC(=O)C1=CCC(c2ccccc2)N(S(=O)(=O)c2ccc(Cl)cc2)C1 (centres undefined) | inconclusive [activator, partial curve]
CCOC(=O)c1cc(-c2ccccc2)n(CCC(=O)N2CCN(c3ccccc3OC)CC2)c1C | inconclusive [activator, single point]
Cc1ccc(Sc2c(C)nn(C(=O)c3cccc(S(=O)(=O)N4CCOCC4)c3)c2C)cc1 | inconclusive [activator, single point]
CCOc1cc(/C=N/O)cc(Br)c1OC | active: 11.2 µM
